Our source for the binding signal (log2 normalized intensity) values is publication PMC10726135.

Some of the results follow. At the low end of the ranking, values are background and their order means little. Measured with an extract: partners may take part in the binding.

In the experiment the target is T1, HNF4alpha8 (COS-7 nuclear extract) (UniProt P41235-5).
T1 sequence: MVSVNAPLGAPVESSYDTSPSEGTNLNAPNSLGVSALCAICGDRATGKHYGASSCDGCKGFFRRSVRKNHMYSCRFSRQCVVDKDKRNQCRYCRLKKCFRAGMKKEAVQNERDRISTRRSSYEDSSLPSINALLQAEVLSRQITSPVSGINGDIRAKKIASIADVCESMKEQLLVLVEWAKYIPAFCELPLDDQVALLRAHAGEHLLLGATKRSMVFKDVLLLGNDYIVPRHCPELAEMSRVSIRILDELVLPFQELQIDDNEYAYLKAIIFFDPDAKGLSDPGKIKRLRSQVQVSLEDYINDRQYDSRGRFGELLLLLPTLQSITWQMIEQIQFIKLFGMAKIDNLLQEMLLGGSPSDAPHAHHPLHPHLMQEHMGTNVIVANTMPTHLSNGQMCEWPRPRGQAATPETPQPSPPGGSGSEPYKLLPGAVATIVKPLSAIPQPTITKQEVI
In words: protein-binding microarray. Particulars: COS-7 nuclear extract on double-stranded Agilent 4x180k PBM; binding buffer, salt, pH and temperature not given; high values mean tight binding; double strand, one strand shown; sequences stand for … in …GCCTAGGGAGATTAGAGTATCGGTCGA
For the sequence AATAAATGTGTTTCATCAGTCCAATTCACA, the binding signal (log2 normalized intensity) stood at 1.62.
As to GATATTTCCCCTTTGACTTAGGATCAGTAG, the binding signal (log2 normalized intensity) is 1.23.
In the case of CTTGTGTAATCCTGCAACAGCCCCATGAGA it was 2.25; in that of ATCAAATTAACACAGCTCTAGAGGGCTGCT, -1.38.
With GGATAAAAGGGGAAAAGGTCAAATACCAAA, the binding signal (log2 normalized intensity) was 2.96.
With GCAAAGCTGCTATGAGCTATGATTGCGCCA, the binding signal (log2 normalized intensity) was -1.4.
Consider ATATCCCTGAGAGGCCAGTTTGACCTTTGC, for which the binding signal (log2 normalized intensity) is 8.82.
Turning to AATGCACTGGTGACTTTAAGTTGACTCCAA, the binding signal (log2 normalized intensity) is -0.366.
In the case of CACTCCTCCTCCTTCCCTCCTGCTCACTTA, the binding signal (log2 normalized intensity) was found to be 0.327.
In the case of ATACCAGAAATTCCATGATTTTCTGGAGGA it was -0.82; in that of CCTCAGTGGCTCACAAATGGAGTTTGGTTT, 2.53.
As for TACATACCCAAGTTCCCTCTCAGGAATGTG, the binding signal (log2 normalized intensity) is -0.0285.
The result for TGAACCAATCTTGAGATAAGTACACAAAAG reads -1.39.
Consider GGAATGTGCTTGGACCTGCTCTGTTTTCTT, for which the binding signal (log2 normalized intensity) worked out at 1.91.
In the case of CTAACAAAGCTCAGGGCAAAGACTCAAATC, the binding signal (log2 normalized intensity) is -1.28.
The result for GGTAGATAAGGGAGTTTCAGAGGACTGCCC reads 0.263; that for CAGCTTTGACGCCACCTGAAGGCAGGTGTG, -1.28; that for ACCTATTCTCTCTGAGGGCTACTATCTGAA, -1.27.
As to TCTTAGAGGCACCCATCCCTTTGCAATAAA, the binding signal (log2 normalized intensity) was 1.37.
TCTCCTAACTATGGTCACGCGGCCAAAATG: the binding signal (log2 normalized intensity) was -1.43.
Turning to ATGCCAGCTAAGATCAGTAGCTAGGAGACA, the binding signal (log2 normalized intensity) was -1.34.
Take CAAAAATATCTTTGTCTCAGGAACTTTGTT: the binding signal (log2 normalized intensity) amounted to 1.45.
The result for CATTGCAAATTGGATGTTGAACCTCTGTCC reads 3.74; that for GGAGGGGAAGCTGGGCAGGCGCCGACTGCC, -1.37; that for AAAACATTGTACCTTCTACCGTACCTAGGA, 0.924.
Regarding GGGGGTCAGAAGTCCAACATTAGTATCACT, the binding signal (log2 normalized intensity) came to 4.52.
In the case of CAAGTGACTGATAAGGCTAAGTGGAGGATT it was -1.28.
The result for ATCTCGGGGCTGGCATGTCTCTGGTCAGGG reads 1.14.
Take AACACGGGCGAAAAAGACGCGGTCTCAGTT: the binding signal (log2 normalized intensity) is -1.32.
Turning to GCGAAGCCGGCGGCGGAATGCTTGTCTAGT, the binding signal (log2 normalized intensity) is -1.21.
On to TATCTTACCTCCTTCTCCCCCATGCCCCTG, for which the binding signal (log2 normalized intensity) came to 5.34.
As for AGGGAAATGCAAACATTTCTGGAATGTCCA, the binding signal (log2 normalized intensity) stood at 0.801.
As for AGAATGCAGAAACAAATACAGACACACCTA, the binding signal (log2 normalized intensity) was -1.37.
In the case of AGAGAAGATTCCAGAGGGAGGGAGGGTGGA it was -1.24.
As to ACCTGGAACTGAAAGAGACCTTTGACATCA, the binding signal (log2 normalized intensity) was 5.23.
Regarding CATCTGATAGCTAAACCAGATACGTGGGTC, the binding signal (log2 normalized intensity) turned out to be 0.709.
In the case of ATCTATTTTCTATTTCCACTGAGGTCAAGA it was 2.57; in that of TGTGGTTAAGACTCAAAGTTCAGTCGAATT, 2.77.
Regarding CGGGCAGCCTGTGGCCAGGCTGCGTTTCAA, the binding signal (log2 normalized intensity) is -1.29.
In the case of ACAGGTGCTCTTTATCAGCACCAAGAACAA it was -0.837; in that of TCCTTGACTTCAAAGGCATTTCTGGACTTG, 3.31.
On to CAGGGAGCCCTTATATCCACATGGGTCCAA, for which the binding signal (log2 normalized intensity) was found to be 3.03.
On to GCTGACCTTTGGTCTAAACCTACTTAGATC, for which the binding signal (log2 normalized intensity) was determined as 4.73.
Consider ATCATTGCCTCTGGTATGCAGAAAAGCAAG, for which the binding signal (log2 normalized intensity) is -0.965.
For the sequence CTTCAAGATGGCATCACTCTTGCCACAGAA, the binding signal (log2 normalized intensity) is -1.33.
With TCACAAGCATGGGCCTCCTCTTCTTTGGGC, the binding signal (log2 normalized intensity) was found to be 0.594.
In the case of TGAGACACGTGTGCCATGCCAAAGAAGCAA, the binding signal (log2 normalized intensity) was -1.3.
For the sequence ATTGTTTACTGGTGAACATAAATCGCAAAT, the binding signal (log2 normalized intensity) was -0.386.
Take GAGCCTGGACATTTGCCACCAATGCCTCTA: the binding signal (log2 normalized intensity) was -1.33.
In the case of TACCGGCAGAGGCTGCAGAGGTTTCGCAAG it was -1.3; in that of AACATAATATTTAGCTTTCAGTGACTGCTC, -0.352; in that of TGTCCAGCACACCTTTTTTTCATGCAAATT, 0.452.
In the case of TTTCTGCCTGTGATGTCCTTCCCTCAGCAA it was -1.46; in that of TAGTTGACCTTTGAGAACCTCCCATCAGCT, 3.55; in that of AACCCAGGGTCACAAGGATCCCATTCATGT, -1.3.
The result for GACTGACTTAACCCTTGCCTGGCATGGCCT reads 0.396.
As to TGTTACCACCCAGACCAGTAACCTAAGTCA, the binding signal (log2 normalized intensity) was -1.22.
The result for CAAAGTCCTGGAAGAAACCCATTTGTTAGT reads 0.761; that for CTGGGAAGATTAAGGAAGGAAGGTGCTTAT, -1.24.
As to ACCTTTGTTCACAGTGACGTTCTGCCCCTT, the binding signal (log2 normalized intensity) was 4.31.
The result for GACCTCAGCCCTCAGGGGCCTTCAGATAAA reads -0.943; that for GAAGCTTTCTGAGAAACTTCTTTGTGATGT, 1.29; that for GTCCGCCCTTCCCCGCTCTCCCCGCCCCCT, 6.27.
In the case of CTGACCTACCTGACCTGGCATACTACAGAA it was -1.34; in that of TGGGAATTGGGATGGCAGCTTCATTCCAGC, -1.41.
Consider ATCACTCCTGGTTGGCAAACAAAAAGCTCT, for which the binding signal (log2 normalized intensity) was -1.29.
The result for GGCAGCAAGTATTCAAGAAAGGGGCAAAGT reads 3.02; that for CTGGAATGTCACAGGGATTACGATCCTGCC, -1.25.
The result for CCCCAATCAGGTTTCTCAAGTGATCGAAGG reads 1.98; that for TGAGCAAGATAATGACTAAGGCAGGGAAGG, -1.25; that for CGATGGGCTGGCCCTGAGCCAAGGGAGCAC, -1.24.
On to CCTTCACAAATTAGACAAGGTTTGTAACAA, for which the binding signal (log2 normalized intensity) was -0.0479.
For ATGTAAATAAGAGCTTTGCATAAGCCAGAC, the binding signal (log2 normalized intensity) is -1.41.
